Laboratory results from PubChem BioAssay AID602293 (National Center for Advancing Translational Sciences (NCATS), 2012).
About 30 (2%) of roughly 1,300 compounds were called active. Roughly 10% stayed inconclusive and do not appear here. Calls follow the shape of the dose curve; as a rule, active = well fitted inhibition curve with a large enough effect; inconclusive = small, poorly fitted or top-dose-only effect; inactive = flat fitted curve, though single readings scatter. The list shows a part of the results.

experiment: qHTS for antagonists of the Thyroid Stimulation Hormone Receptor: Hit Validation in HTRF Activity in a Luteinizing Hormone Receptor Cell Line; conditions: LHR-expressing cell line, cAMP HTRF, antagonist mode; series mostly up to 58 µM; activity change, negative = inhibition: at the top concentration
Procedure, shortened: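 Counter-screen on LH receptor–transfected HEK 293 cells: 30 min compound exposure at room temperature in medium containing 100 uM RO 20-1724 phosphodiesterase inhibitor. Cellular cAMP read by competitive HTRF after lysis with d2-cAMP and anti-cAMP antibody (330 nm excitation; 615/660 nm emission).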
% is scaled to controls: 0 for no effect and ±100 for the full control effect.

Activity change, negative = inhibition, inactive:
Cc1nn(Cc2ccccc2)c(C)c1NC(=O)c1noc2c1CCc1ccccc1-2 -2.93%, Cc1ccccc1-n1nnnc1SC1CCOC1=O (configuration not stated) 0.689%, O=C(O)c1ccc(CNC(=O)c2ccc3c(c2)C(=O)N(Cc2cccnc2)C3=O)cc1 1.33%, O=C(c1ccco1)N1N=C(C2CCCCC2)CC1(O)C(F)(F)F (configuration not stated) 0.572%, O=C(Nc1cc(Sc2nc3ccccc3s2)cc([N+](=O)[O-])c1)c1ccccc1F 0.335%, C#C[C@]1(OC(C)=O)CCC2C3CCC4=CC(=O)CC[C@@H]4C3CC[C@@]21C (some centres not stated) -2.02%, Cc1ccc(-n2[nH]c(C)c(/C=N/Nc3ccc([N+](=O)[O-])cc3[N+](=O)[O-])c2=O)cc1 -2.45%, CSc1nc(N)nc(SCC(=O)Nc2ccc(Cl)cc2)c1C#N 0.0426%, CC(C)OCCCn1c(=O)c2ccccc2n2c(CCC(=O)NC3CCN(Cc4ccccc4)CC3)nnc12 -0.254%, O=C(NC1CCCCC1)c1cc(-c2ccccc2O)on1 -0.0782%, CC1CCN(S(=O)(=O)c2cccc(C(=O)N3CCN(c4ccc(F)cc4)CC3)c2)CC1 -1.37%, CS(=O)(=O)c1ccc(N2CCN(c3ccccn3)CC2)c([N+](=O)[O-])c1 1.26%, CCc1ccccc1NC(=O)C1CCCN(S(=O)(=O)c2ccc3c(c2)CC(C)N3C(C)=O)C1 (configuration not stated) 2.07%, CCCC(=O)Nc1nnc(CCc2ccccc2)s1 2.59%, CCOC(=O)c1c(S(=O)(=O)NCC(=O)Nc2cccc(C)c2C)c(C)n(C)c1C 3.52%, O=c1/c(=C/c2ccc(O)c([N+](=O)[O-])c2)sc2nc3ccccc3n12 -0.441%, CS(=O)(=O)c1nc(-c2ccc(Br)cc2)cc(-c2ccccc2)c1C#N -2.1%, N#Cc1ccc(Nc2nc(-c3ccc(O)cc3O)cs2)cc1C(F)(F)F -3.26%, CCOC(=O)c1c(NC(=O)/C=C/C(=O)O)sc(C)c1-c1ccc(Cl)cc1 -0.895%, CS(=O)(=O)Cc1ccc(C(=O)Nc2cccc(-c3nc4ccccc4[nH]3)c2)cc1 0.454%, O=C(NCc1ccccc1)c1c(Cl)nc(Cl)c(Cl)c1Cl -4.21%, O=C1CSc2nc3ccccc3n21 1.12%, COc1ccc(-n2c(SCC(=O)Nc3cc(C)on3)nc3c(c2=O)SCC3)cc1OC 1.39%, CC1=NN(C(N)=S)C(=O)C1N=Nc1ccc(Cl)cc1Cl (configuration not stated) -0.667%, Cc1ccc(S(=O)(=O)Nc2ccc(N=Nc3ccc(O)cc3)cc2)cc1 -1.68%, Cc1ccc(CCC(=O)NCc2ccccc2)o1 2.28%, CC1=C(C(=O)N2CCCC(N3CCN(c4ccccc4C)CC3)C2)OCCO1 (configuration not stated) 0.43%, COc1ccccc1C(=O)NCCC(=O)Nc1ccc(OC(F)(F)F)cc1 0.988%, O=S(=O)(Cc1cc(Cl)nc(-c2cccnc2)n1)c1ccccc1 -1.72%, Cc1ccccc1NC1c2ccccc2C(=O)N1Cc1ccco1 (configuration not stated) 0.697%, Cc1ccc(NC(=O)COc2cccc3c2OC(C)(C)C3)c(O)c1 0.305%, CN(CC(=O)Nc1ccccc1Cl)C(=O)COC(=O)c1nc(Cl)c(Cl)c(Cl)c1Cl -1.19%, O=C(CCc1nnc2n(Cc3ccc(Cl)cc3)c(=O)c3ccccc3n12)N1CCN(c2ccccn2)CC1 -0.965%, CCCOc1ccc(CSc2nc3ccccc3[nH]2)cc1 -3.51%, O=C(Oc1c(Br)cc([N+](=O)[O-])cc1Br)c1cccnc1 1.3%, O=[N+]([O-])c1ccc(O)c(/C=N/NC(=S)Nc2ccc(Cl)cc2Cl)c1 0.938%, CCCCC(=O)N1CCN(c2nc3ccc(Br)cc3s2)CC1 -0.833%, CC1(C)CC(O)CC(C)(C)N1CC(O)COCc1ccccc1 (configuration not stated) -0.154%, CC(c1nnnn1C1CCCCC1)N(Cc1ccccc1)Cc1cccnc1 (configuration not stated) 2.29%, Cc1ccc(C(=O)C2=C(O)C(=O)N(c3ncccn3)C2c2ccccc2F)o1 (configuration not stated) -6.53%, OCCSc1nnc(Nc2ccccc2)s1 0.323%, N#CC1=C(N)NC(SCc2ccc(Br)cc2)=C(C#N)C12CCCCC2 -0.0416%, Cc1nc2ncnn2c(N2CCCC(C(=O)Nc3ccccc3Br)C2)c1C (configuration not stated) -1.19%, CCOC(=O)COc1ccc(S(=O)(=O)NCCC2=CCCCC2)cc1 1.59%, Nc1ccn(Cc2ccccc2F)n1 3.27%, S=c1[nH]nc(-c2ccccc2Cl)n1Cc1ccccc1 -0.212%, Cc1ccc(-n2[nH]c(C)c(/C=N/Nc3ccc([N+](=O)[O-])cc3[N+](=O)[O-])c2=O)cc1C 1.42%, COc1ccc(Nc2ccc([N+](=O)[O-])c3nonc23)c(OC)c1 1.19%, CC(C)c1nnc(NC(=O)c2nc(S(=O)(=O)Cc3ccccc3F)ncc2Cl)s1 -6.24%, O=C(CSc1nc2cc(Cl)c(Cl)cc2[nH]1)c1ccc2c(c1)OCO2 2.41%, Cc1cc(/C=N/n2c(COc3ccccc3C)nc3ccccc3c2=O)c(O)c([N+](=O)[O-])c1 1.53%, COCCNc1oc(Cc2cccc3ccccc23)nc1C#N 0.212%, Cc1ccc(/C=C/C(=O)Nc2ccc(Oc3ccccc3)cc2)o1 -5.47%, Cc1ccc2c(CN3CCN(S(=O)(=O)c4ccc5c(c4)OCCO5)CC3)cc(=O)oc2c1C -1.91%, N#Cc1c(F)cccc1N1CCN(Cc2ccc3c(c2)OCO3)CC1 -0.93%, COc1ccc(CCNc2ncnc3c2[nH]c2cc(OC)c(OC)cc23)cc1OC -3.52%, CCN(CC)S(=O)(=O)c1ccc(Oc2ccc(S(=O)(=O)N(CC)CC)cc2)cc1 -2.52%, CC(Sc1nnc(N)s1)c1ccccc1Cl (configuration not stated) 0.519%, Cc1onc(-c2ccccc2)c1NC(=O)N(Cc1ccccc1)C(C)C -0.992%, CCN(c1cccc(C)c1)S(=O)(=O)c1cn(CC(=O)OC)c2ccc([N+](=O)[O-])cc12 0.831%, O=S(=O)(Nc1cccnc1)c1cc(Cl)ccc1Cl 2.54%, O=C(COc1cccc(Cl)c1)Nc1nc(-c2ccc(S(=O)(=O)N3CCOCC3)cc2)cs1 -1.65%, Cc1sc2nc(-c3ccccn3)[nH]c(=O)c2c1-c1ccccc1 -0.211%, O=C(N/N=C/c1ccc[nH]1)c1sc2ccccc2c1Cl 2.85%, Cc1ccc(Nc2cc(C)nc3ccc(C)cc23)cc1 -1.33%, CC(=O)c1sc(NC(=O)c2cc(-c3ccccc3)nn2-c2ccccc2)nc1C -8.29%, COc1ccc(Cn2nnnc2C(C(C)C)N2CCN(c3ccccc3OC)CC2)cc1 (configuration not stated) -1.3%, O=C(CNC(=O)c1ccco1)OCC(=O)c1ccccc1 0.433%, Cc1cc2c(NCc3ccccc3)ncnc2s1 0.267%, Cc1ccc(NC(=O)Nc2ccc3c(c2)N(C)C(=O)CS3)cc1C 1.04%, CCOc1ccc(-c2csc(/C(C#N)=C\c3ccc(O)c([N+](=O)[O-])c3)n2)cc1 -4.49%, N#C/C(=N\Nc1cccc([N+](=O)[O-])c1)C(=O)c1ccc(Br)cc1 -1.57%, Cc1ccccc1CS(=O)(=O)c1nnc([C@H](Cc2ccccc2)NC(=O)OC(C)(C)C)o1 -0.485%, COc1ccc(-c2nc(CS(=O)CC(=O)NCc3ccccc3)c(C)o2)cc1OC (configuration not stated) 0.304%, CCOc1cc(C(=O)NC2CC(C)(C)NC(C)(C)C2)cc(OCC)c1OCC 1.9%, Fc1ccc2nc(Nc3nc4c(F)cc(F)cc4s3)sc2c1 -7.21%, COCc1c(C(=O)Nc2cccc(S(=O)(=O)N3CCCCC3)c2)oc2ccccc12 -0.436%, COc1cc(/C=C/C(=O)c2ccc(NS(=O)(=O)c3ccc(C)cc3)cc2)ccc1OC(F)F -2.16%, COc1ccccc1NS(=O)(=O)c1cccc(NC(=O)c2nn(C)c(=O)c3ccccc23)c1 -1.82%, C/C(=N\Nc1cc(C)nc(-c2ccccc2O)n1)c1ccccc1 0.625%, O=C(N[C@H]1C/C=C\C(c2cccc(F)c2)N(Cc2ccccc2)C(=O)C1)OCC1c2ccccc2-c2ccccc21 (some centres not stated) 0.541%, O=C1C(Nc2ccc(O)cc2)=C/C(=N/S(=O)(=O)c2cccs2)c2ccccc21 -7.49%, CC(Sc1nnc2c(n1)[nH]c1ccccc12)C(=O)N(C)C1CCCCC1 (configuration not stated) -6.16%, O=C(NCc1cccc(Cl)c1)c1cc(COc2ccc3ncccc3c2)on1 -4.84%, CC(OC(=O)C1CCN(c2ccc(C(F)(F)F)cn2)CC1)C(=O)Nc1cccc([N+](=O)[O-])c1 (configuration not stated) -2.43%, O=C(c1ccccc1)c1ccc(Cn2cc(-c3ccccc3)nn2)cc1 -3.76%, Cn1c(CNC(=O)C(Cc2ccccc2)NC(=O)c2ccccc2)cc(=O)n(C)c1=O (configuration not stated) -0.184%, CCc1nn(CC(=O)N2CCCCCC2)c(=O)c2cc3ccccc3n12 1.29%, O=S(=O)(Nc1cccc(-c2cn3cccnc3n2)c1)c1ccc(-c2ccccc2)cc1 -0.336%, COCCNC(=S)N1CCCN(c2nc3cc(C)ccc3cc2C#N)CC1 0.829%, O=C(NC(Nc1nc2ccc([N+](=O)[O-])cc2s1)(C(F)(F)F)C(F)(F)F)c1ccccc1 -6.57%, Cn1cc(Cl)c(C(=O)N/N=C/c2ccc3c4c(cccc24)CC3)n1 -0.818%, COc1ccc(N2CCN(C(=O)c3ccccc3N(C)S(=O)(=O)c3ccccc3)CC2)cc1 2.5%, CCCCCCOc1ccc(NC(=O)CC2C(=O)N(CC)C(=S)N2Cc2ccco2)cc1 (configuration not stated) 0.236%, Cc1cc(=O)[nH]c(SCC(=O)Nc2ccc(Br)cc2)c1C#N 0.873%, COc1ccc(NS(=O)(=O)c2cc(NC(=O)/C=C/c3cc(OC)ccc3OC)ccc2N2CCCCC2)cc1 2.29%, O=C(Nc1ccc2nc3n(c(=O)c2c1)CCCCC3)C(=O)N1CCN(c2ccccc2F)CC1 -1.1%, Oc1c(Cl)cc(Cl)c(Cl)c1Cc1c(O)c(Cl)cc(Cl)c1Cl -1.93%, CCN(c1ccccc1)S(=O)(=O)c1ccc(C(=O)N(CCCN(C)C)c2nc3cc4c(cc3s2)OCO4)cc1 -2.95%, CC(C)C(c1nnnn1C(C)(C)C)N1CCN(c2cccc(Cl)c2)CC1 (configuration not stated) -2.86%, C/C(=N/NS(=O)(=O)c1ccc(Br)cc1)c1ccc(NC(=O)c2ccc(C)o2)cc1 2.24%, Cc1ccc(SCC(=O)NCc2ccccc2C)cc1 -0.429%
